# Source: PubChem BioAssay AID1508642 (National Center for Advancing Translational Sciences (NCATS), 2021)
# Screen size: about 43,000 compounds; about 200 (0.47%) were called active. Roughly 12% stayed inconclusive and do not appear here. The call rests on the fitted dose curve; in most records, active means well fitted cell-killing curve with a large enough effect; inconclusive means small, poorly fitted or top-dose-only effect, or effect the other way; inactive means flat fitted curve, though single readings scatter. The list shows a part of the results.
# Assay: Cell viability qHTS assay in S16 Pmp22-F2sN cells; further: nearly all actives have a fitted effect of over 65% in size
# Conditions: S16 Pmp22-F2sN Schwann cells (luciferase reporters placed in the Pmp22 gene) viability, CellTiter-Glo, 24 h; series mostly up to 57.5 µM; activity change, negative = cytotoxicity: at the top concentration
# In short: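 Seed 500-1,000 S16 Pmp22-F2sN cells per well in phenol-red-free DMEM with 10% heat-inactivated FBS; pin-add 23 nL compound; incubate 24 h at 37C; add CellTiter-Glo, wait 15 min protected from light; read luminescence.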
# On the % scale 0 is the no-effect control and ±100 the full control effect; potency means the concentration at half of the fitted maximal effect.
Compound,"activity change, negative = cytotoxicity",Potency
Cc1cccc(Cn2c(CN3CCC(C(=O)NC(C)C)CC3)cc3ccccc32)c1,inactive: -9.65%,–
Cc1cccc(Nc2nc(-c3ccccc3)nc3ccccc23)c1,inactive: -9.81%,–
COc1ccc(Cn2c(CO)cnc2SCc2ccccc2)cc1,inactive: -4.77%,–
O=C(COCc1cc(-c2ccc(F)cc2)on1)Nc1cccc(C(F)(F)F)c1,inactive: 4.28%,–
CCCOc1ccc(C2C(=O)N(C3CCCCC3)CC(=O)N2C2CCCCC2)cc1OC (centres undefined),inactive: -3.19%,–
Cc1ccc(-n2c(=O)c3c(C)c(C(=O)N(C)C)sc3n(Cc3ccccc3C)c2=O)cc1C,inactive: 1.36%,–
O=S(=O)(c1ccccc1)n1nc(-c2ccco2)nc1NCc1ccccc1,inactive: 5.86%,–
CCc1nnc(NC(=O)c2nc(SCc3cccc(C)c3)ncc2Cl)s1,inactive: -0.914%,–
CCOc1ccc(-c2cn3c(n2)sc2cc(C(=O)NC(C)C45CC6CC(CC(C6)C4)C5)ccc23)cc1 (centres undefined),inactive: -0.191%,–
CC1CCN(C(=O)Cn2cc(SCC(=O)NCc3ccccc3)c3ccccc32)CC1,inactive: -11.4%,–
CCOc1ccc(C(c2c(O)cc(C)n(Cc3ccco3)c2=O)N2CCN(C)CC2)cc1 (centres undefined),inactive: 9.88%,–
COc1cccc(N2CC(NC(=O)/C=C\c3ccccc3)CC2=O)c1 (centres undefined),inactive: 0.142%,–
O=C(CSc1nc2c([nH]c3ccccc32)c(=O)n1-c1ccccc1F)Nc1cccc(Cl)c1,inactive: -25.1%,–
CC(Nc1oc(-c2ccc(COc3ccccc3)o2)nc1C#N)c1ccccc1 (centres undefined),inactive: -7.71%,–
Cc1cccc(-n2ncc3c(NCCOCCO)ncnc32)c1,inactive: 2.05%,–
COc1ccc(-c2cn3c(n2)sc2cc(C(=O)NCCc4ccccc4)ccc23)cc1,inactive: 0.62%,–
COc1ccccc1/C=C/c1nc(C#N)c(NCc2ccccc2)o1,inactive: -0.41%,–
Cc1ccc(C)c(NC(=O)c2cnc(N3CCCC3)nc2C)c1,inactive: 0.593%,–
O=C(OCc1cc(=O)n2nc(C3CC3)sc2n1)c1cccc(NC(=O)c2ccccc2Cl)c1,inactive: 8.02%,–
Cc1cc(C)cc(NC(=O)NCc2noc3ccccc23)c1,inactive: 5.16%,–
CCC(=O)N1CCCc2cc(S(=O)(=O)N3CCC(C(=O)NC4CCC(C)CC4)CC3)ccc21 (centres undefined),inactive: -27.6%,–
O=C(Cc1ccc(Cl)cc1)NC1CC(=O)N(c2ccc3c(c2)OCCO3)C1 (centres undefined),inactive: -0.598%,–
COc1ccc(-n2ncc(C(=O)NCc3cccs3)c2C2CCN(C(=O)OC(C)(C)C)CC2)cc1,inactive: -5.24%,–
Cc1cccc(CNC(=O)C2CCN(c3nn4cc(-c5ccc(F)cc5)nc4s3)CC2)c1,inactive: 7.14%,–
CCc1ccccc1N(CC)C(=O)c1cc2c(s1)-c1ccccc1SC2,inactive: -4.13%,–

Compound,"activity change, negative = cytotoxicity",Potency
Cn1c(SCc2ccc(F)cc2)nc2ccc(C(=O)NCc3cccc(Cl)c3)cc21,inactive: -12.2%,–
CCOc1ccccc1C(=O)NCc1ccc2c(c1)CCN2C(=O)c1ccc(F)cc1,inactive: -2.64%,–
COc1ccc2c(CNC3CCC(C)CC3)c(C(=O)O)n(Cc3ccc(F)cc3)c2c1 (centres undefined),inactive: 1.62%,–
COc1cccc(OCCSc2nc3ccccc3n2CC(=O)N2CCOCC2)c1,inactive: 26.2%,–
Cc1ccc(N(Cc2cccs2)C(=O)c2ccc(OC(C)C)cc2)cc1,inactive: -1.98%,–
Cc1cc(=O)n2nc(N3CCC(C(=O)Nc4ccc(Br)c(C)c4)CC3)sc2n1,inactive: 1.35%,–
COCCNC(=O)c1ccc(Cn2c(SCC(N)=O)nc3ccccc3c2=O)cc1,inactive: -0.659%,–
COc1ccc(C2CC(=O)Nc3c2c(C)nn3-c2nncc(-c3ccccc3)n2)c(OC)c1OC (centres undefined),inactive: -0.317%,–
COc1cc2nc(NCCc3cccc(C)c3)n3nc(-c4ccccc4)nc3c2cc1OC,inactive: 23.5%,–
CCOC(=O)c1cccc(NC(=O)COc2ccc3c(C)cc(=O)oc3c2)c1,inactive: 9.29%,–
COc1ccc(-c2noc(CN(C(=O)c3ccc(C)cc3C)C(C)C)n2)cc1,inactive: 6.46%,–
CCOC(=O)c1ccccc1NC(=O)CSc1ccc(-c2sc(C)nc2C)nn1,inactive: -9.14%,–
Cc1ccc(C(=O)NCCc2csc(-c3cccc(F)c3)n2)cc1C,inactive: 9.08%,–
CCc1ccc(CNC(=O)CN2C(=O)C3CCCCN3c3ccc(C(=O)N4CCCC4)cc32)cc1 (centres undefined),inactive: 12.6%,–
CC1CCN(S(=O)(=O)c2ccc3c(c2)N(C)C(=O)CC(=O)N3C)CC1,inactive: 3.45%,–
Cc1ccc(-c2nnc(SCc3ccccc3)o2)cc1,inactive: 1.37%,–
COc1cccc(NC(=O)C(C)n2c(=O)cc(C(F)(F)F)c3c(C)nn(C)c32)c1 (centres undefined),inactive: -4.78%,–
CCCNC(=O)CN1C(=O)COc2ccc(S(=O)(=O)N3CCCCCC3)cc21,inactive: 3.04%,–
CCN(CC)C(=O)Cn1c(SCC(=O)Nc2ccc(F)cc2)nc2ccccc21,inactive: -2.11%,–
CCOc1ccccc1NC(=O)Cn1c(=O)nc(-c2ccccc2F)c2cc(Cl)ccc21,inactive: 3.42%,–
COc1ccccc1NC(=O)c1cc2c(-c3ccccc3)nn(-c3ccccc3)c2s1,inactive: 0.157%,–
CCc1ccccc1NC(=O)Cn1c(=O)n(C(C)C)c(=O)c2oc3ccccc3c21,inactive: 12.4%,–
COc1ccc(OCc2nc3ccccc3n2Cc2ccc(C(C)(C)C)cc2)cc1,inactive: -20.3%,–
Cc1noc(Cn2c(=O)c3ccccc3n(CC(=O)Nc3cc(Cl)ccc3C)c2=O)n1,inactive: -8.39%,–
CCOC(=O)c1[nH]c2ccccc2c1NC(=O)c1ccc(C)c(C)c1,inactive: -4.61%,–

Compound,"activity change, negative = cytotoxicity",Potency
O=C(CSc1n[nH]c(-c2ccccc2)n1)N1CCN(c2ccc(F)cc2)CC1,inactive: 6.27%,–
O=C(CCn1cnc2onc(-c3ccc(F)cc3)c2c1=O)Nc1cccc(C(F)(F)F)c1,inactive: -18.9%,–
CCc1ccccc1NC(=O)CCn1cccn1,inactive: -6.3%,–
Cc1ccc(CSc2nc3ccccc3c3nc(CCn4c(C)nc5ccccc54)nn23)cc1,inactive: 1.02%,–
CCOc1ccc(NC(=O)c2ccc3c(=O)n4c(nc3c2)CCCCC4)cc1,inactive: -3.17%,–
Cc1cc(C)cc(NC(=O)C(C)N2Cc3ccccc3C2=O)c1 (centres undefined),inactive: 11.9%,–
Cc1ccc(-n2c(=O)c3c(cnn3C)n(CC(=O)Nc3cccc(Cl)c3)c2=O)cc1,inactive: -6.74%,–
CCOc1ccccc1NC(=O)CN1C(=O)CC(c2ccc(C)c(C)c2)=Nc2ccccc21,inactive: -1.02%,–
Cc1ccc(CNC(=O)C2CCN(C(=O)N3CC(C)Oc4ccc(Cl)cc43)CC2)cc1 (centres undefined),inactive: -17.6%,–
Cc1ccc(-c2nnc3ccccc3c2C(=O)Nc2ccc(F)cc2)cc1,inactive: 17.2%,–
COc1ccc(C(C)=O)cc1CSc1nc(Nc2ccc(F)c(F)c2)c2ccccc2n1,inactive: -17.5%,–
O=C(O)c1cc(-c2ccccc2)nn1Cc1ccccc1,inactive: -1.26%,–
COc1ccccc1Nc1nn2c(=O)c3ccc(C(=O)NCCc4ccccc4)cc3nc2s1,–,active: 8.91 µM
Cc1ccc(N2CCN(c3nc4ccc(C(=O)c5ccccc5)cc4n4cnnc34)CC2)c(C)c1,inactive: -2.32%,–
COc1ccc(C)cc1NC(=O)N(C(C)C)C1CCN(C(C)=O)CC1,inactive: -1.14%,–
CC(=O)Nc1ccc(NC(=O)c2ccc3c(c2)CCN3S(=O)(=O)c2ccc(C)cc2)cc1,inactive: 4.74%,–
Cc1ccn2c(Nc3ccccc3)c(-c3c[nH]c4ccccc34)nc2c1,inactive: -1.8%,–
Cc1cc(C)cc(NC(=O)C(=O)NCCc2sc(-c3cccc(F)c3)nc2C)c1,inactive: 9.09%,–
CCCCCn1c(CCCNC(=O)c2ccccc2OC)nc2ccccc21,inactive: -29.8%,–
O=C(NCc1ccccc1Cl)C1=Cc2cc(Br)ccc2OC1,inactive: 13%,–
Cc1ccccc1NC(=O)CSc1ccc(-c2ccccn2)nn1,inactive: -6.55%,–
COc1ccccc1-c1nn(CCC(=O)Nc2ccc(C)cc2)c2nc(C)cc(C)c12,inactive: 13.9%,–
CCN1CCN(CCCNC(=O)Cn2nc(C)n3c(cc4c(OC)cccc43)c2=O)CC1,inactive: 14.6%,–
CC1=C(C(N)=O)C(c2ccc(C)cc2)n2nc(SCc3ccccc3)nc2N1 (centres undefined),inactive: 4.9%,–
CCOc1ccc(NC(=O)CC2C(=O)N(c3ccc(OC)cc3)C(=O)N2CCC2=CCCCC2)cc1 (centres undefined),inactive: -0.565%,–

Compound,"activity change, negative = cytotoxicity",Potency
CCN(CC)C(=O)Cn1ncc2c([nH]c3ccccc32)c1=O,inactive: 6.04%,–
CCOC(=O)c1cnc2ccc(C(=O)OC)cc2c1Nc1ccc(OCc2ccccc2Cl)cc1,inactive: -25.1%,–
CCOC(=O)NNC(=O)C1CCC(C)CC1 (centres undefined),inactive: -1.34%,–
CC(C)Oc1ccc(CNC(=O)c2cnc3sc(N4CCCC4)nn3c2=O)cc1,inactive: 9.61%,–
O=C(NCC(c1ccc2c(c1)OCO2)N1CCN(c2ccccc2)CC1)C(=O)Nc1ccccc1F (centres undefined),inactive: -17.2%,–
Cc1oc2c(c1C(=O)NCc1ccccc1F)C1=NCCN1C=N2,inactive: 3.64%,–
CCOC(=O)c1cc(NC(=O)c2ccc(F)cc2)c(=O)n2c1oc1ccc(Cl)cc12,inactive: -0.0722%,–
CCCSCCCNC(=O)Cn1c(-c2cccs2)cc2ccccc21,inactive: 9.34%,–
Cc1cc(O)c(CN2CCN(c3ccccc3)CC2)c2oc(=O)cc(C)c12,inactive: 1.99%,–
O=C(Nc1c2c(nn1-c1ccc(Cl)cc1)CS(=O)(=O)C2)c1ccc(Br)cc1,inactive: -1.26%,–
COC(=O)CN1C(C(=O)c2ccccc2)=C(OC(=O)c2ccccc2)c2ccccc2S1(=O)=O,inactive: 14.4%,–
Cc1ccc(NC(=O)CCCn2nc(C)c3c(C)n(-c4ccccc4)nc3c2=O)c(Cl)c1,inactive: -2.2%,–
COc1ccc(S(=O)(=O)N(CC(=O)Nc2ccc(Br)cc2)Cc2ccccc2)cc1,inactive: -26.1%,–
Cc1ccc(NC(=O)C2CCCN(S(=O)(=O)c3cccs3)C2)c(C)c1 (centres undefined),inactive: 14%,–
CCCCN(CCCC)C(=O)c1c[nH]c2ccc(S(=O)(=O)Nc3cccc(Cl)c3C)cc2c1=O,inactive: -14.1%,–
CCCn1c2ccccc2c2cnn(CC(=O)N3CCCC(C(=O)OCC)C3)c(=O)c21 (centres undefined),inactive: 12.8%,–
Cc1ccc(C(=O)Nc2cnc3ccccn3c2=O)cc1,inactive: 4.47%,–
Cc1nc(-c2ccc(S(=O)(=O)NCc3ccccc3Cl)cc2)co1,inactive: -1.39%,–
Cc1ccc2c(=O)cc(C(=O)Nc3sc4c(c3C(=O)NCc3cccnc3)CCCC4)oc2c1,inactive: -22.8%,–
CCOC(=O)c1ccc(NC(=O)C2=C(C)C(=O)OC23CCN(C(C)C)CC3)cc1,inactive: 23.8%,–
COc1cccc2cc(C(=O)Nc3ccc(C)cc3)c(=O)oc12,inactive: 6.25%,–
Cc1ccc(CCNC(=O)c2ccc3c(c2)N(Cc2cccc(F)c2)C(=O)c2ccccc2S3)cc1,inactive: 6.47%,–
CC(C)CCNC(=O)c1ccc2nc(Cc3ccccc3)oc2c1,inactive: 11.7%,–
Cc1cc(NS(=O)(=O)c2ccc(NC(=O)COc3cc(C)c(Br)cc3C(C)C)cc2)no1,inactive: -3.54%,–
